# Measurements: PubChem BioAssay AID686979 (National Center for Advancing Translational Sciences (NCATS), 2013)
# “And” between values parts separate entries of the source, which are not always exact repeats. Equal entries are not always repeated. In all, about 420,000 compounds went through this assay and about 50,000 (12%) were called active. The inconclusive results got no clear call from the source; some entries with a clear call stand among them for comparison. Calls follow the shape of the dose curve; as a rule, active = well fitted inhibition curve with a large enough effect; inconclusive = small, poorly fitted or top-dose-only effect; inactive = flat fitted curve, though single readings scatter. No potency is given beside an inconclusive call; the fits are too rough.
# Experiment: qHTS for Inhibitors of human tyrosyl-DNA phosphodiesterase 1 (TDP1): qHTS in cells in presence of CPT; also: nearly all actives have a fitted effect of over 55% in size
# Details: chicken DT40 Tdp1-/-;hTDP1 cells + 20 nM CPT, ATP luminescence, 48 h; activity change, negative = growth inhibition: at 46.2 µM (top of the series) unless noted
# How it was run: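 Chicken DT40 Tdp1-/- cells stably complemented with human TDP1 were seeded at 400 cells/well in medium containing 20 nM camptothecin, exposed to pin-transferred compounds, and grown at 37 °C for at least 48 hr. Viability was read as ATP luminescence.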
# % is scaled to controls: 0 for no effect and ±100 for the full control effect; potency is read from the fitted curve at half-maximal effect; tags tell the direction and shape of the fitted curve.
Compound,Potency,"activity change, negative = growth inhibition"
CCc1nnc(SCC(=O)Nc2ccc(N3CCN(S(C)(=O)=O)CC3)cc2)o1,"inconclusive [inhibitor, full curve, poor fit]",
CCc1nc2ccc(C(=O)NCCOc3ccc(OC)cc3)cn2c1N(CC)Cc1cccc(Br)c1,active: 18.4 µM,
COc1cccc(-c2c(C(=O)N/N=C/c3sccc3C)nnn2-c2nonc2N)c1,,inactive: -8.43%
C=CC[C@@H](CC(=O)N[C@@H](CO)Cc1ccccc1)C(=O)N[C@H](COC(=O)[C@@H](CC=C)CC(=O)OC(C)(C)C)Cc1c[nH]c2ccccc12,active: 16.4 µM,
COc1ccc(CCNC(=O)COc2ccc(C)nc2[N+](=O)[O-])cc1,,inactive: -14.8%
COCCNC(=O)/C(C#N)=C/C=C/c1ccccc1,,inactive: -24.7%
COc1ccc(CN2[C@@H](CC(C)=O)c3ccc(/C=C/C(C)=O)cc3S2(=O)=O)cc1,active: 4.47 µM and active: 7.31 µM,
C=CCn1c(N)c(C(=O)Nc2ccccc2)c2nc3ccccc3nc21,,inactive: -9.88%
Cc1nc(-c2ccc(S(=O)(=O)Nc3cccc(Cl)c3)cc2)co1,,inactive: -27.5%
CN(C)c1ccc(-c2nc(Nc3ccncc3)c3ccccc3n2)cc1,active: 9.2 µM,
CC1CCN(CC(=O)Nc2ccc(C(=O)N3CCCCC3)cc2)CC1,,inactive: -22.8%
Cc1ccc(SCCC(=O)N/N=C/c2ccccc2O)cc1,active: 0.651 µM,
CC(C)(C)c1ccc(C(=O)N2CCC(=O)N(C(COCc3ccccc3)Cc3ccccc3)CC2)cc1 (centres undefined),active: 14.6 µM,
CCOC(=O)CC1COCCN1C(=O)c1cc(COc2ccc(F)cc2Cl)on1 (centres undefined),"inconclusive [inhibitor, single point]",
CCOC(=O)C1CCN(C(=O)c2cc3cc(F)ccc3[nH]2)CC1,"inconclusive [inhibitor, single point]",
CCCCC(=O)N1CCN(c2nc3c(C)c(C)ccc3s2)CC1,"inconclusive [inhibitor, partial curve]",
O=C(CN1C(=O)CSc2cc(S(=O)(=O)N3CCCCCC3)ccc21)NCCc1ccccc1,"inconclusive [inhibitor, single point]",
N=c1c(-c2nc3ccccc3[nH]2)cc(C(=O)c2ccco2)nn1-c1ccccc1,active: 2.59 µM,
CCc1nc(Nc2cccc(OC)c2)c2oc3ccccc3c2n1,"inconclusive [inhibitor, single point]",
CCCCNc1cc(N2CCN(C3CCCCC3)CC2)c2noc3c2c1C(=O)c1ccccc1-3,active: 5.17 µM,
Cc1ccc2nc(-c3ccc(-c4cccc(Cl)c4)cc3)c(NCc3ccccc3)n2c1,"inconclusive [inhibitor, single point]",
COc1cc2c(cc1OC)CN(C(=O)c1ccc(OC)c(S(=O)(=O)N3CCCC3)c1)CC2,"inconclusive [inhibitor, single point]",

Compound,Potency,"activity change, negative = growth inhibition"
CCCn1c2ccccc2c2nnc(SCCN3CCOCC3)nc21,"inconclusive [inhibitor, single point]",
O=C(NCc1ccccn1)c1cc(-c2ccc(Cl)cc2)oc1C(F)(F)F,"inconclusive [inhibitor, single point]",
CO/N=C\CC(=O)Nc1ccc(Oc2ccccc2)cc1,active: 1.46 µM,
CSc1nc(C)cc(SCC(=O)Nc2ccccc2)n1,"inconclusive [inhibitor, single point]",
CCOC(=O)C1CCCN(Cc2c(C(=O)N3CCCCC3)nc3c(C)cccn23)C1 (centres undefined),,inactive: -19.4%
Cc1ccc(S(=O)(=O)N2[C@@H](CO)CO[C@H]2CC(=O)c2ccccc2)cc1,,inactive: 10.8%
COc1cccc(/C=C2\C=C(c3ccc(C)cc3)OC2=O)c1OC(C)=O,,inactive: 8.2%
CCc1cc(-c2nnn(CCC3COCCO3)c2CC)cc(CC)c1-c1cn(Cc2ccccc2)nn1 (centres undefined),"inconclusive [inhibitor, single point]",
C=CC(COCc1ccccc1)N(CC(=O)OC)S(=O)(=O)c1cc(Br)ccc1OC (centres undefined),"inconclusive [inhibitor, single point]",
Nc1cc([N+](=O)[O-])ccc1Nc1ccc(O)cc1,"inconclusive [inhibitor, partial curve, poor fit]",
O=C(C1CC(=O)N(c2ccc(Cl)cc2)C1)N1CCC(c2nc3ccccc3[nH]2)CC1 (centres undefined),"inconclusive [inhibitor, partial curve, poor fit]",
COCCN1CCn2c(nc3cc(NC(=O)NC4CCCCC4)ccc32)C1,"inconclusive [inhibitor, single point]",
CCc1ccc(Cn2c(CNS(=O)(=O)c3ccc4c(c3)CCCC4)nc3cccnc32)cc1,"inconclusive [inhibitor, single point]",
COc1ccc2nc3cc(Cl)ccc3c(Nc3cc(C(C)C)c(O)cc3C)c2c1,active: 23.1 µM,
CCOc1ccc(NC(=O)c2oc3ccccc3c2NC(=O)Cc2cccs2)cc1,,inconclusive: -36.6% [inhibitor]
CCN1CCN(C(=O)c2ccc3c(c2)N(Cc2ccc(Cl)cc2)C(=O)c2ccccc2S3=O)CC1 (centres undefined),"inconclusive [inhibitor, single point]",
Cc1cc(C)c2c(n1)SCC(=O)N2CC(=O)Nc1cccc(C)c1C,"inconclusive [inhibitor, single point]",
COC(=O)c1c(C)[nH]c(C(=O)COC(=O)Cn2cc(C(F)(F)F)ccc2=O)c1C,"inconclusive [inhibitor, single point]",
COc1ccc2nc(N3CCN(C(=O)c4ccc5ncsc5c4)CC3)sc2c1,,inactive: -25.8%
COc1ccc([N+](=O)[O-])cc1N(CC(O)CN1CCCCC1)S(=O)(=O)c1ccccc1 (centres undefined),,inactive: 6.35%
COc1cccc(Cn2c(=O)n(CC3CCC(C(=O)N4CCOCC4)CC3)c(=O)c3sccc32)c1 (centres undefined),"inconclusive [inhibitor, single point]",
S=C(NCCc1ccccc1)Nc1ccc(Br)cn1,"inconclusive [inhibitor, partial curve, poor fit]",
